The campaign covered roughly 46,000 compounds. About 60 (0.1%) were called active. About 3% were inconclusive and are not listed. The call rests on the fitted dose curve; in most records, active means well fitted inhibition curve with a large enough effect; inconclusive means small, poorly fitted or top-dose-only effect; inactive means no such curve, though single readings can be large or run the other way. This is one part of the list.

The nature of the experiment: Primary qHTS assay for Inhibitors of ovarian cancer metastasis using an organotypic tumor microenvironment (TME) model. Further: nearly all actives have a fitted effect of over 65% in size.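 On activity change, negative = inhibition: plate controls were DMSO wells for no effect and tomatine positive control wells for full effect.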 The following applies: SKOV3ip1-GFP adhesion/invasion on 3D omental model, fluorescence; series mostly up to 45.8 µM; activity change, negative = inhibition: at the top concentration. Put shortly: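 Primary human omental fibroblast/mesothelial 3D culture pre-formed 48 h. SKOV3ip1-GFP cells added with compounds (0.36-46 umol/L), incubated 2 h RT/16 h 37 C, fixed; GFP cells quantified at 488/509 nm.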
For `Cc1ccc(Cn2cc(S(=O)(=O)c3cccc(C)c3)c(=O)c3cc(F)c(N4CCOCC4)cc32)cc1`, the “activity change, negative = inhibition” value was inactive: 3.47%. Turning to `CCOc1ccc(-n2c(SCC(=O)Nc3cc(C)ccc3C)nc3c([nH]c4ccccc43)c2=O)cc1`, the molecule was classed as inactive.

For the molecule `CCC(C)n1c(=O)c2sccc2n2c(CCCC(=O)N3CCN(c4ccccc4)CC3)nnc12` (configuration not stated), the “activity change, negative = inhibition” value is inactive: -1.15%.

With `O=C(Cn1c(=O)n(Cc2nc(-c3ccccc3)no2)c(=O)c2cc3c(cc21)OCO3)Nc1ccccc1`, the “activity change, negative = inhibition” value is inactive: 13.4%. With `COC(=O)c1cc(Nc2nc3ccccc3nc2NS(=O)(=O)c2ccc(C)cc2)ccc1Cl`, the molecule was called inactive. `COc1ccc2c(c1)CCc1c(C(=O)Nc3cc(OC)c(Cl)cc3OC)noc1-2`: the “activity change, negative = inhibition” value was inactive: 5.97%.

For the molecule `CC(C)c1ccc(NC(=O)CSC2=Nc3ccccc3C3=NC(CCC(=O)NC4CCCCC4)C(=O)N23)cc1` (configuration not stated), the “activity change, negative = inhibition” value is inactive: 1.68%.

For `COc1ccc2cc([C@H](C)C(=O)O)ccc2c1`, the “activity change, negative = inhibition” value is inactive: -24.2%. Same read-out and setting: for `O=C(Cc1ccccc1)Nc1sc2c(c1C(=O)Nc1ccccc1Cl)CCCCC2` the value was inactive: 5.89%; for `Nc1c(C(=O)Nc2ccc(F)cc2)sc2nc(-c3cccs3)cc(C(F)(F)F)c12`, inactive: -5.01%; for `COC(=O)c1ccc([C@@H]2Nc3c(OC)ccc(C)c3[C@@H]3C=CC[C@@H]32)cc1`, inactive: 0.615%.

Consider `Cc1cc(F)ccc1NC(=O)C(c1ccccc1)N1Cc2ccccc2C1=O` (configuration not stated), for which the “activity change, negative = inhibition” value was inactive: 7.25%. On the same count and under the same terms, next, `COc1ccc(C(=O)Nc2cccc(C(=O)OCc3cc(=O)n4nc(C5CC5)sc4n3)c2)cc1`: inactive: 6.63%. As to `Cc1ccc2oc3c(c(=O)c2c1)C(c1ccc(O)cc1)N(CCCN(C)C)C3=O` (configuration not stated), the call was inactive. The same measure, in the same setting: next, `Cc1ccc(-n2c(=O)c3cccnc3n2CC(=O)NCc2ccc(Cl)cc2)cc1`: “inactive”.

Consider `Cc1cccc(Nc2ncnc3onc(-c4ccc(Cl)cc4)c23)c1C`, for which the “activity change, negative = inhibition” value was inactive: 0.597%. Regarding `O=[N+]([O-])c1ccc(Nc2ccccc2-c2ccccc2)c2nonc12`, the “activity change, negative = inhibition” value was inactive: -6.43%.

For the molecule `O=C(CCS(=O)(=O)c1cc2c(cc1Cl)NC(=O)CO2)NCc1ccc(Cl)cc1`, the molecule was classed as inactive. With `CC1N=C2c3ccccc3N=C(SCC(=O)NCCc3ccc(Cl)cc3)N2C1=O` (configuration not stated), the “activity change, negative = inhibition” value was inactive: -3.54%. For the molecule `CCn1c2ccccc2c2cc(CN3CCN(Cc4ccc(Br)cc4)CC3)ccc21`, the molecule was called inactive. Same read-out and setting: for `COc1ccc2[nH]cc(CCN=C(NC(=O)c3ccccc3F)Nc3nc(C)cc(C)n3)c2c1` the value was “inactive”; for `Cc1ccccc1NC(=O)Cn1c(=O)n(CCCC(=O)NCc2ccc3c(c2)OCO3)c(=O)c2ccccc21`, “inactive”.

Regarding `CCOc1ccc(CC(=O)Nc2cccc(-c3nc4cccnc4s3)c2C)cc1`, the “activity change, negative = inhibition” value was inactive: -2.76%. On the same count and under the same terms, next, `O=c1cc(-c2ccccc2)c2ccc3c(c2o1)CN(Cc1cccc(Cl)c1)CO3`: inactive: -7.62%; `COc1cccc(NCc2cccn2-c2nnc(N3CCC(C)CC3)s2)c1`: inactive: -15.7%.

For `CCC(C)NC(=O)CN1C(=O)c2cccnc2Sc2ccccc21` (configuration not stated), the “activity change, negative = inhibition” value is inactive: -39.6%. Same read-out and setting: next, `C=C(C)CSc1nc2sc3c(c2c(=O)n1Cc1ccccc1)CC(C)(CC)OC3` (configuration not stated): inactive: -3.96%. Regarding `Cc1c(C(=O)Nc2ccccc2Br)oc2ccc(S(=O)(=O)N3CCCCCC3)cc12`, the “activity change, negative = inhibition” value was inactive: -0.475%. On the same count and under the same terms, next, `COc1ccc(Cl)cc1NC(=O)c1c(NCc2ccc(C)o2)sc2c1CCC(C)C2` (configuration not stated): inactive: 0.976%; `Cc1ccc(-c2cn3cccnc3n2)cc1NC(=O)C(C)(C)Oc1ccc(Cl)cc1`: inactive: -1.19%. Still for that read-out and setting: next, `COCCNC(=O)CCCn1c(SCC(=O)Nc2ccc(F)cc2)nc2c(sc3ccccc32)c1=O`: inactive: -12.1%; `COc1ccc(C(=O)n2nc(N)c3cc4ccc(C)cc4nc32)cc1OC`: inactive: -1.34%.

Turning to `CCOC(=O)Cn1c(=N)n(Cc2ccc(C(C)(C)C)cc2)c2ccccc21`, the “activity change, negative = inhibition” value is inactive: 15.5%. With `CCCOC(=O)c1cccc(Nc2nc(CCC)cc(=O)[nH]2)c1`, the molecule was called inactive. For the molecule `COc1ccc(NC(=O)C2CCC(CNS(=O)(=O)c3cccc4nsnc34)CC2)cc1OC` (configuration not stated), the “activity change, negative = inhibition” value is inactive: -1.73%.

Turning to `Cc1ccc(CN2C(=O)C(O)(c3c(C)[nH]c4ccccc34)c3ccccc32)cc1` (configuration not stated), the outcome was inactive. `Cc1cc(C)cc(-n2ccnc2SCC(=O)Nc2cccc3ccccc23)c1`: the “activity change, negative = inhibition” value was inactive: 9.44%. On the same count and under the same terms, next, `COc1cc(C2CC(=O)N(Cc3cccc(F)c3)c3ccccc3S2)cc(OC)c1OC` (configuration not stated): inactive: -0.582%. For the molecule `Cc1cc2nc(-c3ccc(OCc4ccccc4C)cc3)cc(C(F)(F)F)n2n1`, the outcome was inactive.

Turning to `CC1CCN(C(=O)c2c(NC(=O)c3ccccc3Cl)sc3c2CCC(C(C)(C)C)C3)CC1` (configuration not stated), the “activity change, negative = inhibition” value is inactive: 3.14%. In the case of `COc1ccccc1C1NC(=O)c2n[nH]c(-c3cccs3)c21` (configuration not stated), the “activity change, negative = inhibition” value was inactive: 1.85%. Take `COc1ccc([N+](=O)[O-])cc1NC(c1nnc(-c2ccccc2)o1)c1ccccc1F` (configuration not stated): the call was inactive. Turning to `CCN(C(=O)Cn1c(C(=O)OC)cc2sc(Cl)cc21)c1cccc(C)c1`, the “activity change, negative = inhibition” value is inactive: 10.9%. Consider `CCc1ccc(S(=O)(=O)c2cn(CC(=O)Nc3ccc(F)c(Cl)c3)c3ccccc3c2=O)cc1`, for which the “activity change, negative = inhibition” value is inactive: -8.04%. For `COc1ccc(N2C(=O)NC(NS(=O)(=O)c3ccc(Cl)cc3)(C(F)(F)F)C2=O)cc1` (configuration not stated), the “activity change, negative = inhibition” value is inactive: 24.9%. Consider `Cc1ccccc1-c1nc(CN2CCCC(C(=O)NCc3ccc(Cl)cc3)C2)c(C)o1` (configuration not stated), for which the molecule was classed as inactive. With `CNC(=O)C1CCC(Cn2c(=O)c3sccc3n(Cc3cc(C)ccc3C)c2=O)CC1` (configuration not stated), the “activity change, negative = inhibition” value was inactive: 6.9%.
